# About 5,300 (4.4%) of roughly 120,000 compounds were called active. The shares of active, inactive and inconclusive entries below differ from those in the screen. The call rests on the fitted dose curve; in most records, active means well fitted inhibition curve with a large enough effect; inconclusive means small, poorly fitted or top-dose-only effect; inactive means no such curve, though single readings can be large or run the other way. A potency beside an inconclusive call is a rough fit, not a confirmed value.
# Test: qHTS Primary assay for Inhibitors of Plasmodium falciparum Dd2 growth in vitro; further: nearly all actives have a fitted effect of over 65% in size;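 on activity, negative = inhibition: plate controls were DMSO vehicle for no effect and reference drug for full effect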
# Settings: P. falciparum Dd2 growth, SYBR Green, 72 h; activity, negative = inhibition: at 28.9 µM (top of the series) unless noted; series mostly up to 28.9 µM
# Method in brief: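 Infected erythrocytes (Dd2, 0.3% parasitemia, 2.5% hematocrit final) are added to compound in RPMI-1640/Albumax II medium, grown 72 h at 37C in low oxygen, then lysed with saponin/Triton-X containing SYBR Green and read by fluorescence.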
# Potency means the concentration at half of the fitted maximal effect; tags describe the fitted curve by direction and shape.
SMILES,Potency,"activity, negative = inhibition",outcome
CCCCC1CCC(C(=O)N2CC(=O)Nc3ccc(C)cc3C2c2ccc(F)cc2)CC1 (stereo not given),"inconclusive: 20 µM [inhibitor, partial curve, poor fit]",,
COc1ccc(Cn2ccc3nc(C)c(C(=O)N4CCN(c5cccc(OC)c5)CC4)cc3c2=O)cc1,active: 12.6 µM,,
COc1ccc(NC(=O)c2c(NC(=O)C(F)(F)F)sc3c2CCCCC3)cc1,active: 3.16 µM,,
O=C(C1CCCN(c2nc(-c3ccccc3)nc3c2CCC3)C1)N1CCCNCC1 (stereo not given),"inconclusive: 8.91 µM [inhibitor, partial curve, poor fit]",,
COc1ccc(CN2CCc3c(c(=O)n4ncc(C(=O)N5CCN(c6ccccc6F)CC5)c4n3C)C2)cc1,"inconclusive: 10 µM [inhibitor, partial curve, poor fit]",,
COc1ccc(NC(=O)Cn2c(C)cc3nc4n(c(=O)c32)CCCC4)cc1Cl,"inconclusive: 1.41 µM [inhibitor, full curve, poor fit]",,
CCCS(=O)(=O)N1CC(=O)N(c2cccc(F)c2)C(C)(C(=O)NC2CCCCCC2)C1 (stereo not given),"inconclusive: 0.282 µM [inhibitor, full curve, poor fit]",,
O=C(O)COc1ccc(-c2nccc3c2C(=O)N(Cc2cccc(C(F)(F)F)c2)CC(COc2ccc4cnccc4c2)O3)cc1 (stereo not given),"inconclusive: 17.8 µM [inhibitor, single point]",,
CCN(C(=O)CCc1nc(-c2ccc(C)cc2)no1)c1cccc(C(F)(F)F)c1,"inconclusive: 11.2 µM [inhibitor, single point]",,
COc1ccc(C(=O)N[C@@H]2CN(Cc3ccccc3)C[C@H]2CO)cn1,"inconclusive: 10 µM [inhibitor, single point]",,
CCCCN1CC(c2nc3ccccc3n2CCCCOc2cc(C)cc(C)c2)CC1=O (stereo not given),"inconclusive: 17.8 µM [inhibitor, single point]",,
O=C(Nc1ccc(Cl)cc1)N1CCC2(CC1)CCN(Cc1cccs1)c1ccccc1O2,active: 1.41 µM,,
CCOc1ccc(S(=O)(=O)N2Cc3ccccc3CC2C(=O)Nc2ccc(NC(C)=O)cc2)cc1 (stereo not given),"inconclusive: 17.8 µM [inhibitor, single point]",,
CN1C(=O)[C@H]2CN(Cc3ccc(Cl)c(F)c3)C[C@H]2C1=O,,inactive: 10.8%,
CCN(CC)CCNC(=O)C(=O)Nc1c2c(nn1-c1ccc(F)cc1)CSC2,"inconclusive: 11.2 µM [inhibitor, single point]",,
Cc1ccc(C)c(-c2cc3c(=O)n(CCNC(=O)c4ccccc4Cl)ccn3n2)c1,"inconclusive: 2.24 µM [inhibitor, full curve]",,
Cc1ccc(NC(=O)CSc2nc(-c3ccco3)cc(C(F)(F)F)n2)c(C)c1,"inconclusive: 0.708 µM [inhibitor, full curve, poor fit]",,
O=C(O)c1cccc(CN2CC(CNc3ccccc3)C3(C2)CN(c2ccccc2)C3)c1 (stereo not given),"inconclusive: 11.2 µM [inhibitor, single point]",,
COc1ccccc1N1CCN(C(=O)c2cc(-c3ccc(C)c(F)c3)on2)CC1,,inactive: -6.3%,
Cn1cc(CN2CCOC[C@H]2c2ncc(-c3cccc(F)c3)[nH]2)c2ccccc21,"inconclusive: 11.2 µM [inhibitor, partial curve, poor fit]",,

SMILES,Potency,"activity, negative = inhibition",outcome
Cn1cnc(C(=O)N2CCCC(c3nc(-c4cccnc4)no3)CCNC(=O)CC2)c1 (stereo not given),,inactive: 13.6%,
CC(=O)N1CCC([C@@H]2CN(C(=O)c3cc(C)cc(C)c3)C[C@H]2CO)CC1,,inactive: -6.56%,
O=C(CN1CC2CC(C1)[C@H]1CCCC(=O)N1C2)NCCCN1CCCc2ccccc21 (stereo not given in full),"inconclusive: 17.8 µM [inhibitor, single point]",,
COC(=O)c1ccc(C(=O)OC)c(NC(=O)CN(c2ccccc2)S(=O)(=O)N(C)C)c1,"inconclusive: 10 µM [inhibitor, single point]",,
COc1ccc(Cc2nc3nccc(-c4ccc(OC)c(OC)c4)n3n2)cc1,"inconclusive: 11.2 µM [inhibitor, partial curve]",,
Fc1cc(F)cc(Cc2nc3nccc(-c4ccccc4)n3n2)c1,"inconclusive: 11.2 µM [inhibitor, single point]",,
CC(C)(C)CC(=O)N1CC[C@H]2CC(=O)N(Cc3cccnc3)CC[C@H]2C1,,,inactive [at 44.1 µM]
Cc1nc(N2CCN(C)CC2)ncc1C(=O)N1C[C@@H](C)[C@](O)(C2CC2)C1,,inactive: -5.11%,
CCOCCCn1c(=N)c(C(=O)NCc2cccnc2)cc2c(=O)n3ccccc3nc21,"inconclusive: 0.0631 µM [inhibitor, full curve]",,
CCN(CC)C(=O)c1ccc2c(c1)N(Cc1ccc(C(F)(F)F)cc1)C(=O)c1ccccc1S2,"inconclusive: 17.8 µM [inhibitor, single point]",,
Cc1ccc(N2C(=O)CCSC23C(=O)N(Cc2ccccc2)c2ccccc23)cc1 (stereo not given),"inconclusive: 17.8 µM [inhibitor, single point]",,
COc1ccc(CCNC(=O)CCn2ccn3nc4c(c3c2=O)CCCC4)cc1OC,"inconclusive: 17.8 µM [inhibitor, single point]",,
COCC(=O)N[C@H]1C[C@@H](CO)N(Cc2sccc2C)C1,,inactive: -21.5%,
CSc1ccc(-c2ccc3c(c2)C(=O)N2CC[C@H](NC(=O)c4cccs4)[C@H]2C(=O)N3)cc1,"inconclusive: 8.91 µM [inhibitor, partial curve, poor fit]",,
CCNC(=O)N1CCC(Cc2ncc(C)n2Cc2ccc(F)cc2)CC1,"inconclusive: 11.2 µM [inhibitor, single point]",,
O=C(CCCc1c[nH]c2ccccc12)NCC(=O)N1CCCCCCNC(=O)CC1c1ccccc1 (stereo not given),"inconclusive: 0.562 µM [inhibitor, full curve, poor fit]",,
O=C1Nc2ccccc2CC12CCN(C1COC1)C2 (stereo not given),,inactive: 0.196% [at 44.1 µM],
CC(NC(=O)Cn1ccc2cc(S(=O)(=O)N3CCCCCC3)ccc21)c1ccccc1 (stereo not given),,inactive: 22.4%,
CCOC(=O)c1ccc(NC(=O)Cn2nc3n(c2=O)CCCC3)cc1,,inactive: -11.7%,
O=C(Nc1cc(F)cc(F)c1)N1CCC(Oc2ncccc2C(=O)N2CCOCC2)C1 (stereo not given),,,inactive
